# In all, about 410,000 compounds went through this assay and about 530 (0.13%) were called active. Inconclusive results, whose numbers are uncertain, are shown with a selection of clear calls. Calls follow the shape of the dose curve; as a rule, active = well fitted inhibition curve with a large enough effect; inconclusive = small, poorly fitted or top-dose-only effect, or another doubt; inactive = no such curve, though single readings can be large or run the other way. Potencies of inconclusive entries are doubtful fits and often do not repeat.
# Assay: qHTS of GLP-1 Receptor Inverse Agonists: Cytotox Screen
# Conditions: HEK293 cAMP-luciferase reporter cells, luminescence, 24 h; activity change, negative = inhibition: at 38.3 µM (top of the series) unless noted
# Procedure, shortened: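 To flag toxic compounds, the library was rerun on cells for 24 hr at 37 deg C and 5% CO2. Viability-linked luminescence was captured 12 min after adding luciferase detection reagent.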
# % is scaled to controls: 0 for no effect and ±100 for the full control effect; potency is read from the fitted curve at half-maximal effect.
SMILES,Potency,"activity change, negative = inhibition"
O=C(CCl)N1CCN(S(=O)(=O)c2ccc3c(c2)CCC3)CC1,"inconclusive: 28.2 µM [inhibitor, single point]",–
O=C(CNCC1CCCCC1)Nc1ccccc1N1CCCCC1,"inconclusive: 12.6 µM [inhibitor, single point]",–
CS(=O)(=O)Nc1ccc([N+](=O)[O-])cc1Oc1ccccc1,–,inactive: -9.94%
Cc1ccc2nc(-c3cccc(NC(=O)c4ccc5c(c4)OCCO5)c3)oc2c1,"inconclusive: 11.2 µM [inhibitor, single point]",–
O=S(=O)(c1ccc(OCC(O)CNC23CC4CC(CC(C4)C2)C3)c(Cl)c1)N1CCOCC1 (stereo not drawn),"inconclusive: 31.6 µM [inhibitor, single point]",–
O=C(CSc1ccc2ccccc2n1)N/N=C/c1ccc(O)cc1,–,inactive: -30.6%
O=C(NC(=S)NCCC1=CCCCC1)c1ccccc1Br,"inconclusive: 28.2 µM [inhibitor, single point]",–
CCOc1ccc(NS(=O)(=O)c2cc(C(=O)NCCCN3CCCC3=O)ccc2C)cc1,"inconclusive: 2 µM [inhibitor, partial curve, poor fit]",–
O=C(CCCN1C(=O)/C(=C/c2ccccc2OC(F)F)SC1=S)Nc1cccnc1,"inconclusive: 28.2 µM [inhibitor, single point]",–
Cc1nn(-c2ccc(Cl)cc2)c2nc(-c3cccnc3)cc(C(F)(F)F)c12,–,inactive: -3.68%
CCOC(=O)C1=C(C)NC(=S)NC1c1ccc(-c2cccc(Cl)c2C)o1 (stereo not drawn),"inconclusive: 22.4 µM [inhibitor, single point]",–
C=C(C)COc1ccc(-c2[nH]ncc2Oc2ccc(OC)cc2)c(O)c1,"inconclusive: 12.6 µM [inhibitor, partial curve, poor fit]",–
CCCCn1c(=N)n(CC(=O)c2ccc(Br)s2)c2ccccc21,"inconclusive: 12.6 µM [inhibitor, single point]",–
COc1ccc(OC)c(CNC(=O)c2ccc(NC(=O)c3nsc4ccccc34)cc2)c1,–,inactive: 1.22%
CCn1cc(S(=O)(=O)c2cccc(Cl)c2)c(=O)c2cc(F)c(N3CCN(C)CC3)cc21,–,inactive: -26.4%
O=S(=O)(CCN1CCN(c2ccccc2O)CC1)c1cc(Cl)ccc1Cl,"inconclusive: 15.8 µM [inhibitor, single point]",–
O=C(CCS(=O)(=O)c1ccccc1)Nc1nc(-c2ccc(F)cc2)cs1,"inconclusive: 8.91 µM [inhibitor, partial curve, poor fit]",–
CC(=O)Nc1cc(C(=O)OCC(=O)c2ccc(Cl)cc2Cl)ccc1C,–,inactive: -15.7%
CC(C)(C)NC(=S)Nc1ccc(Br)cc1,"inconclusive: 11.2 µM [inhibitor, partial curve, poor fit]",–
CCCOc1ccc(C2=CSC3=NCCN23)cc1Cl,"inconclusive: 15.8 µM [inhibitor, single point]",–
COCCNC(=O)C1(C)CCCN(C(=O)c2ccc(C(=O)OC)cc2)C1 (stereo not drawn),–,inactive: 0.876%
O=S(=O)(Nc1ccccc1N1CCCC1)c1ccccc1C(F)(F)F,–,inactive: 2.61%
Cc1ccc(NC(=O)c2c(C)oc3c2C2=NCCN2C=N3)cc1F,–,inactive: 1.67%

SMILES,Potency,"activity change, negative = inhibition"
Cc1cc(C)n(-c2cc(N3CCN(C(=O)c4cccc(Br)c4)CC3)ccc2[N+](=O)[O-])n1,"inconclusive: 12.6 µM [inhibitor, partial curve, poor fit]",–
Nc1nc(N2CCN(C(=O)c3ccco3)CC2)nc2ccc(Br)cc12,"inconclusive: 10 µM [inhibitor, single point]",–
C=CCNC(=S)NN(c1ccccc1)c1ccccc1,"inconclusive: 28.2 µM [inhibitor, single point]",–
CC(C)(C)NCC(=Cc1ccccc1)C(=O)c1ccccc1,active: 5.01 µM,–
CCn1nc(C)c(CNC(=O)Nc2ccccc2C(=O)OC)c1C,–,inactive: 20.1% [at 7.66 µM]
CCCCCCn1c(=O)n2n(c1=O)C[C@]1(OC(=O)NCc3ccc(OC)c(OC)c3)CN(S(=O)(=O)c3ccc(C)cc3)C[C@]1(O)C2,"inconclusive: 20 µM [inhibitor, partial curve, poor fit]",–
CCCCNc1c(-c2ccc(OC)c(Sc3ccc(OC)cc3)c2)nc2ccccn12,"inconclusive: 11.2 µM [inhibitor, single point]",–
C[C@]12C=CC(=O)C=C1CC[C@@H]1C2=CC[C@]2(C)[C@@H](C(=O)CN3CCN(c4cc(N5CCCC5)nc(N5CCCC5)n4)CC3)CC[C@@H]12,–,inactive: 8.18%
Cc1cc(C(=O)CN2C(=O)C(=O)N(Cc3ccccc3)C2=O)c(C)n1Cc1ccccc1,"inconclusive: 12.6 µM [inhibitor, single point]",–
CC(C)(C)c1cn(-c2ccccc2)c(=S)[nH]1,"inconclusive: 28.2 µM [inhibitor, single point]",–
Cc1c(C(=O)N2CCC2)oc2c(F)cccc12,–,inactive: 10.3%
Cc1cccc(NC(=O)c2ccc(OCc3c(C)noc3C)cc2)c1C,–,inactive: -18.5%
O=C(NC(=S)Nc1cc(Cl)ccc1O)c1cccc(Br)c1,"inconclusive: 12.6 µM [inhibitor, single point]",–
Cc1ccc(C(=O)Nc2sc3c(c2C(=O)O)CCCCC3)o1,"inconclusive: 20 µM [inhibitor, single point]",–
C[C@H]1CN([C@@H](C)CO)C(=O)Cc2cc(NS(=O)(=O)c3cn(C)cn3)ccc2O[C@@H]1CN(C)C(=O)Nc1ccc(F)cc1,"inconclusive: 3.98 µM [inhibitor, full curve, poor fit]",–
O=C(N/N=C(\c1ccccc1)c1ccccn1)c1ccccc1Cl,"inconclusive: 20 µM [inhibitor, single point]",–
OC1(c2ccc(OC(F)F)cc2)CSC(=Nc2cccnc2)N1Cc1ccco1 (stereo not drawn),–,inactive: -10.7%
CC(OC(=O)/C=C/c1cccc(F)c1)C(=O)NC1CCCCC1C (stereo not drawn),"inconclusive: 31.6 µM [inhibitor, single point]",–
Cc1cccc(C(=O)Nc2ccc(C(=O)OCc3cc(=O)n4c(C)csc4n3)cc2)c1,"inconclusive: 3.16 µM [inhibitor, partial curve, poor fit]",–
COc1ccc(-c2csc(C(C)(O)c3cccc(F)c3)n2)cn1 (stereo not drawn),–,inactive: 2.42%
CC1CCCN(C(=O)CSc2nc3ccccc3o2)C1 (stereo not drawn),"inconclusive: 28.2 µM [inhibitor, single point]",–
N/C(Cn1cncn1)=N\NC(=O)C(=O)Nc1ccc(Cl)cc1Cl,"inconclusive: 11.2 µM [inhibitor, partial curve]",–
COc1ccc(N2CCN(C(=O)CSc3nnc(-c4cccnc4)n3-c3ccc(F)cc3)CC2)cc1,"inconclusive: 0.501 µM [inhibitor, full curve, poor fit]",–

SMILES,Potency,"activity change, negative = inhibition"
COc1cccc(NC(=O)CN(C)C(=O)CNC(=O)c2ccc(Oc3ccccc3)cc2)c1,–,inactive: -1.42%
CN(Cc1ccccc1)c1nc2c(c(=O)[nH]c(=O)n2C)n1Cc1ccccc1,–,inactive: 0.157%
CN1/C(=C\C=C(/C#N)C(=O)Nc2ccccc2F)C(C)(C)c2ccccc21,–,inactive: 113%
O=C(COc1ccc2c(c1)C(=O)CC1(CCCCC1)O2)NCc1ccccc1,–,inactive: 11.5%
O=C(c1cc(-c2ccc(Cl)c(Cl)c2)on1)N1CCOCC1,"inconclusive: 28.2 µM [inhibitor, single point]",–
COc1cc(/C=C2\N=C(c3ccccc3)NNC2=O)cc(OC)c1OC,"inconclusive: 1.58 µM [inhibitor, full curve]",–
Cc1nc(Nc2nc(-c3ccccc3)cc(=O)[nH]2)nc2ccccc12,"inconclusive: 28.2 µM [inhibitor, single point]",–
Cc1ccc(N2C(=O)CS/C2=N\C(=S)Nc2ccccc2)cc1,"inconclusive: 0.447 µM [inhibitor, full curve, poor fit]",–
COc1c(OC)c(O)c2c(=O)c(O)c(-c3ccccc3)oc2c1OC,–,inactive: -14%
Cn1cncc1C#Cc1ccc2cc(CCO)oc(=O)c2c1,"inconclusive: 3.55 µM [inhibitor, full curve, poor fit]",–
CN1CCN(c2nc(Nc3cccc(C(F)(F)F)c3)nc(N3CCOCC3)n2)CC1,"inconclusive: 8.91 µM [inhibitor, partial curve, poor fit]",–
CC(C(=O)N(C)C1CCCCC1)N1CCC(C(N)=O)CC1 (stereo not drawn),–,inactive: 5.77%
O=C(c1ccc(NC(=O)C2(c3ccccc3)CCCC2)cc1)N1CCOCC1,"inconclusive: 7.94 µM [inhibitor, partial curve, poor fit]",–
Cc1cnc(=O)[nH]c1SCC(=O)Nc1cc(C(F)(F)F)ccc1Cl,–,inactive: -2.64%
COc1cc(C(=O)OCCc2cc3ccccc3c(=O)o2)cc(OC)c1OC,"inconclusive: 1.12 µM [inhibitor, full curve]",–
COc1cccc(NC(=O)N(Cc2cn(C)c3ccccc23)C2CCCCCC2)c1,"inconclusive: 12.6 µM [inhibitor, single point]",–
N#CC1=C(SCC(=O)NC2CCCCC2)NC(=O)CC1c1ccco1 (stereo not drawn),"inconclusive: 28.2 µM [inhibitor, single point]",–
COc1ccc(CN2CCCC(C(=O)c3ccc(Cl)cc3)C2)cc1Cn1cccn1 (stereo not drawn),"inconclusive: 28.2 µM [inhibitor, single point]",–
COc1ccc(/C=C/C(=O)c2ccncc2)c2ccccc12,"inconclusive: 12.6 µM [inhibitor, single point]",–
O=C(NC1CCN(Cc2ccccc2)C1)c1cc(COc2ccc(F)cc2F)on1 (stereo not drawn),–,inactive: 0.716%
CCOc1ccc(-c2n[nH]c(C)c2Oc2ccc(OC)cc2)c(O)c1,"inconclusive: 11.2 µM [inhibitor, single point]",–
O=C(N/N=C/c1ccc(Br)cc1)c1ccccc1-n1cccc1,"inconclusive: 0.501 µM [inhibitor, full curve, poor fit]",–
